# Assay results as given in PubChem BioAssay AID1347120 (National Center for Advancing Translational Sciences (NCATS), 2019).
# The whole screen tested about 390,000 compounds, of which about 930 (0.24%) were called active. This list was built around the results that the source calls inconclusive (neither active nor inactive); the mix of calls is not that of the screen. Calls come from the whole dose curve; as a rule, active = well fitted activation curve with a large enough effect; inconclusive = small, poorly fitted or top-dose-only effect; inactive = no such curve, though single readings can be large or run the other way. Where the call is inconclusive, the potency comes from a doubtful curve fit.
# Assay: qHTS for Suppressors of FUS Proteinopathy: Primary screen using FUS-linked yeast assay; note: nearly all actives have a fitted effect of over 55% in size;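 for growth rescue (activation): plate controls were DMSO vehicle for no effect and reference control for full effect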
# Conditions: S. cerevisiae FUS-expressing, OD600, 24 h; Potency: growth rescue; growth rescue (activation): at 76.6 µM (top of the series)
# Procedure, shortened: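 FUS-expressing yeast, raffinose-pregrown, induced in 2% galactose minimal medium at OD 0.005; compounds in a dilution series, 24hr at 30C. Growth restoration read as absorbance at 600 nm. CP55940 positive control, DMSO negative.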
# Potency is the fitted concentration of half-maximal effect; tags give direction and shape of the fitted curve.
Structure (SMILES),Potency,growth rescue (activation)
CCc1cccc(NC(=O)c2sc3nc[nH]c(=O)c3c2C)c1,inactive,
O=C(NC1CCCCC1)c1sc(=S)n2c1[nH]c(=O)c1ccccc12,inactive,
COc1cc(C(=O)Nc2ccc(-n3cnnn3)c(C)c2)cc(OC)c1OC,"inconclusive: 25.1 µM [activator, partial curve, poor fit]",
CC1(C)CC(=O)C2=C(C1)Nc1[nH]c(=S)[nH]c(=O)c1C2c1ccccc1 (stereo not given),"inconclusive: 15.8 µM [activator, partial curve, poor fit]",
Cc1ccccc1Nc1c(-c2ccccc2O)nc2sccn12,"inconclusive: 35.5 µM [activator, single point]",
Cc1cc(N2CCOCC2)nc(SCc2ccc(Cl)cc2Cl)n1,"inconclusive: 3.98 µM [activator, full curve]",
COc1ccc(Cn2c(C(=O)O)c(CNCCc3cccs3)c3ccc(OC)cc32)cc1,"inconclusive: 44.7 µM [activator, single point]",
O=C(OCN1C(=O)c2ccccc2C1=O)c1cc(S(=O)(=O)N2CCOCC2)ccc1F,inactive,
COCCNC(=O)c1cnn2c(C(F)F)cc(-c3ccc(C)cc3)nc12,inactive,
Cc1cccc(OCCC(=O)OCc2csc(CC(=O)Nc3ccccc3C)n2)c1,"inconclusive: 3.55 µM [activator, full curve]",
O=C(Nc1nnc(SCC(=O)N2CCOCC2)s1)C1CC(=O)N(c2ccc(F)cc2)C1 (stereo not given),"inconclusive: 3.98 µM [activator, full curve]",
CCOC(=O)[C@]12CCC=C1N(Cc1ccccc1)C(=O)[C@H](CC(=O)NCC13CC4CC(CC(C4)C1)C3)C2,"inconclusive: 22.4 µM [activator, single point]",
COc1ccc(N=C2NC(=O)/C(=C\C=C\c3ccco3)S2)cc1,"inconclusive: 44.7 µM [activator, single point]",
COc1ccccc1Cn1c(=O)c2ccccc2n2c(Sc3ncnc4sccc34)nnc12,"inconclusive: 22.4 µM [activator, partial curve]",
CN1[C@@H](Cc2ccccc2)COc2cc(F)ccc2S1(=O)=O,inactive,
Cc1cccc(OCC(=O)Nc2ccc(N3CCN(C(=O)c4ccco4)CC3)cc2)c1C,inactive,
Cc1ccc(-n2c(SCc3nc(-c4ccc(Cl)cc4)no3)nnc2-c2ccncc2)cc1,"inconclusive: 31.6 µM [activator, single point]",
COc1ccc(-c2nc(CSCC(=O)N3CCN(c4cccc(C)c4)C(C)C3)c(C)o2)cc1OC (stereo not given),"inconclusive: 25.1 µM [activator, partial curve]",
CCCC(C(=O)Nc1ccc(S(=O)(=O)N2CCOCC2)cc1)c1ccccc1 (stereo not given),"inconclusive: 35.5 µM [activator, single point]",
CCOc1ccc(C(c2c(NC(=O)c3ccccc3)sc(C)c2C)N2CCN(CCO)CC2)cc1 (stereo not given),"inconclusive: 28.2 µM [activator, single point]",
CCN(CC(=O)Nc1ccc(NC(C)=O)cc1)C(=O)/C=C/c1cn(-c2ccccc2)nc1-c1ccc(C)cc1,active: 31.6 µM,
COC(=O)c1c(C)sc(-c2c(-c3ccc(F)cc3)[nH]c3[nH]c(=O)[nH]c(=O)c23)c1O,inactive,

Structure (SMILES),Potency,growth rescue (activation)
O=C(Oc1ccc(-c2cnc3ccccc3n2)cc1)c1ccc(Br)o1,"inconclusive: 28.2 µM [activator, partial curve, poor fit]",
CC(=O)Oc1ccc(N(C(C)=O)S(=O)(=O)c2cccs2)c2ccccc12,inactive,
CN1CCN(CC(=O)O)CC1,inactive,
COc1ccc(NC(=O)C2=C(C)Nc3c(C(=O)Nc4ccc(C)cc4)cnn3C2c2cccc(Cl)c2)cc1 (stereo not given),inactive,
COc1ccccc1N1CCN(C(=O)c2ccc(NS(=O)(=O)c3ccc(C)cc3)cc2)CC1,"inconclusive: 28.2 µM [activator, partial curve, poor fit]",
COc1ccc(-c2cccc(NS(=O)(=O)c3cccs3)c2)nn1,inactive,
COC(=O)c1ccc(C(NC(=O)OCc2ccccc2)/C(C)=C/[C@@H](C)C(=O)NCc2ccc(OC)c(OC)c2)cc1 (stereo not given in full),"inconclusive: 8.91 µM [activator, partial curve]",
Clc1ccc(N2CCN(Cc3nnc(-c4ccc5c(c4)OCO5)o3)CC2)cc1,inactive,
Cc1ccc(SCc2nc(N)nc(Nc3ccccc3C)n2)c(C)c1,inactive,
CCCOc1ccc(-c2cccc(NS(=O)(=O)c3cccs3)c2)nn1,"inconclusive: 50.1 µM [activator, single point]",
COc1ccc(N(CC(=O)Nc2cccc(N(C)S(C)(=O)=O)c2)S(=O)(=O)c2ccccc2)cc1Cl,"inconclusive: 20 µM [activator, single point]",
CC(=O)Nc1ccc(S(=O)(=O)Nc2nc3ccccc3nc2Nc2ccc(C(=O)O)c(O)c2)cc1,"inconclusive: 44.7 µM [activator, single point]",
CCN(CC)C(=O)C1=C(C)N(Cc2ccc(C(C)(C)C)cc2)C(=O)C(CC(=O)NCc2cccs2)C1 (stereo not given),"inconclusive: 22.4 µM [activator, single point]",
CCCCCCCCNCCS(=O)(=O)NCCCCCCCC,"inconclusive: 50.1 µM [activator, single point]",
COc1ccc(-c2onc(C)c2C)cc1S(=O)(=O)Nc1ccc(OC(F)(F)F)cc1,inactive,
COc1ccc(OC)c(-c2cc(C(=O)Nc3c(C)nn(Cc4ccc(Cl)cc4)c3C)no2)c1,"inconclusive: 17.8 µM [activator, partial curve, poor fit]",
O=C1c2ccccc2-c2onc3c(N4CCN(CCO)CC4)cc(N4CCN(C(=O)c5ccco5)CC4)c1c23,"inconclusive: 14.1 µM [activator, partial curve, poor fit]",
CN(C(=O)c1cccc(NC(=O)Cc2ccc(NC(=O)C3CCN(C(=O)CCc4ccccc4)CC3)cc2)c1)C1CCC1,"inconclusive: 14.1 µM [activator, partial curve, poor fit]",
COc1cccc(OC)c1-c1nn2c(-c3ccccc3Cl)nnc2s1,"inconclusive: 14.1 µM [activator, single point]",
CCOC(=O)N1CCN(C(=O)c2ccc3c(=O)n(Cc4ccc(OC)cc4)c(=S)[nH]c3c2)CC1,"inconclusive: 28.2 µM [activator, single point]",
CC(=O)Nc1cccc(-c2cc(NC=O)c3ncc(-c4ccc(F)c(Cl)c4)n3c2)c1,"inconclusive: 50.1 µM [activator, single point]",
Cc1ccc(-n2c(C)cc(C(=O)NS(=O)(=O)c3ccc(C)cc3)c2C)cc1,"inconclusive: 22.4 µM [activator, partial curve, poor fit]",

Structure (SMILES),Potency,growth rescue (activation)
N/C(=N\OC(=O)c1ccc(=O)n(Cc2ccccc2)c1)c1ccccn1,inactive,
CCCCn1c(SCC(=O)Nc2cccc(OC)c2)nc2ccsc2c1=O,inactive,
COc1ccc2c(c1)CCc1sc(NC(=O)c3ccco3)nc1-2,inactive,
COc1ccc(OC)c(/C=C/C(=O)N2CCN(S(=O)(=O)c3cc(C)ccc3C)CC2)c1,active: 31.6 µM,
COc1ccccc1NC(=O)c1c(C)cc(C)nc1SCC(=O)Nc1cccc(C)c1,"inconclusive: 22.4 µM [activator, single point]",
CC(Oc1ccc(F)cc1)C(=O)Nc1cccc(S(=O)(=O)N(C)c2ccccc2)c1 (stereo not given),"inconclusive: 22.4 µM [activator, partial curve]",
O=C(OCc1cn(Cc2cccc(C(F)(F)F)c2)nn1)N1CCOCC1,inactive,
CC1CCc2c(sc(NC(=O)c3cccn3C)c2C(N)=O)C1 (stereo not given),"inconclusive: 22.4 µM [activator, partial curve, poor fit]",
Cc1ccc(S(=O)(=O)N2C[C@H]3N(C(=O)OC(C)C)N(C(=O)OC(C)C)C[C@H](OC(=O)NCC4CCCCC4)[C@@]3(O)C2)cc1,"inconclusive: 15.8 µM [activator, partial curve]",
Cc1cccc(Cl)c1OCCCCn1ccnc1,,inconclusive: 50.4% [activator]
COC(=O)[C@]12CCCCC=C1N(CCc1ccc(OC)c(OC)c1)C(=O)[C@H](CC(=O)NCc1cccc(C(F)(F)F)c1)C2,active: 4.47 µM,
O=C(c1ccccc1)N1CCC(CC2CC(c3ccc(Cl)cc3)=NO2)(C(=O)NCC2CCCCC2)CC1 (stereo not given),"inconclusive: 28.2 µM [activator, single point]",
Cc1nc2ccc(NC(=O)c3ccccc3)cc2s1,inactive,
O=C(NC(=S)Nc1ccccc1N1CCCC1)c1ccc(-c2cccc([N+](=O)[O-])c2)o1,"inconclusive: 25.1 µM [activator, partial curve, poor fit]",
Cc1ccccc1-c1noc(CSc2nnc(Cc3ccccc3)n2-c2ccc(F)cc2)n1,"inconclusive: 12.6 µM [activator, partial curve, poor fit]",
COc1ccc(C(CNC(=O)c2ccc(OCC3CCCO3)cc2)N2CCOCC2)cc1 (stereo not given),inactive,
CC(=O)N1CCOc2ccc(S(=O)(=O)N3CCC(C(=O)Nc4ccc(C)c(C)c4)CC3)cc21,"inconclusive: 50.1 µM [activator, single point]",
COc1ccc(NC(C)=O)cc1S(=O)(=O)Nc1ccc(OCc2ccccc2)cc1,"inconclusive: 39.8 µM [activator, single point]",
N#CCC[C@H]1CC[C@]2(CCCN(C(=O)C3CCCCC3)C2)O1,inactive,
CNc1nnc(-c2cccc(N(C)C)c2)s1,inactive,
CC(C)c1ccc(C2c3c(-c4ccccc4O)n[nH]c3C(=O)N2CCc2ccccc2)cc1 (stereo not given),inactive,
